For seven molecules, EC50 results are on record in patent publication US20220213213A1 (published 2022).

B1: 1200-1210 (bispecific antibody)
chain 1: EVQLLESGGGLVQPGGSLRLSCAASGFTFSSYAMSWVRQAPGKGLEWVSGISGGGGGTYYADSVKGRFTISRDNSKNTLYLQMNSLRAEDTAVYYCARDVAYFDYWGQGTLVTVSS[no letters for human IgG1 constant region with changes]GGGGSGGGGS[no letters for about 100 residues]YYGGYYSAWMDYWGQGTLVTVSSGGGGSGGGGSGGGGSDIQMTQSPSSLSASVGDRVTITCRASQSISSYLNWYQQKPGKAPKLLIYAASSLQSGVPSRFSGSGSGTDFTLTISSLQPEDFATYYCQQTYGYLHTFGQGTKLEIK
chain 2: DIQMTQSPSSLSASVGDRVTITCRASQSISSYLNWYQQKPGKAPKLLIYAASSLQSGVPSRFSGSGSGTDFTLTISSLQPEDFATYYCQQYYIPHTFGQGTKLEIKRTVAAPSVFIFPPSDEQLKSGTASVVCLLNNFYPREAKVQWKVDNALQSGNSQESVTEQDSKDSTYSLSSTLTLSKADYEKHKVYACEVTHQGLSSPVTKSFNRGEC
B2: 1214-1210 (bispecific antibody)
heavy: EVQLLESGGGLVQPGGSLRLSCAASGFTFSSYAMSWVRQAPGKGLEWVSSIGSGGGYTGYADSVKGRFTISRDNSKNTLYLQMNSLRAEDTAVYYCARVGHPFDYWGQGTLVTVSS[no letters for human IgG1 constant region with changes]GGGGSGGGGS[no letters for about 100 residues]YYGGYYSAWMDYWGQGTLVTVSSGGGGSGGGGSGGGGSDIQMTQSPSSLSASVGDRVTITCRASQSISSYLNWYQQKPGKAPKLLIYAASSLQSGVPSRFSGSGSGTDFTLTISSLQPEDFATYYCQQTYGYLHTFGQGTKLEIK
light: DIQMTQSPSSLSASVGDRVTITCRASQSISSYLNWYQQKPGKAPKLLIYAASSLQSGVPSRFSGSGSGTDFTLTISSLQPEDFATYYCQQDAYPHTFGQGTKLEIKRTVAAPSVFIFPPSDEQLKSGTASVVCLLNNFYPREAKVQWKVDNALQSGNSQESVTEQDSKDSTYSLSSTLTLSKADYEKHKVYACEVTHQGLSSPVTKSFNRGEC
B3: 1620-1210 (bispecific antibody)
heavy: EVQLLESGGGLVQPGGSLRLSCAASGFTFSGYYMYWVRQAPGKGLEWVSGISSSGSYTYYADSVKGRFTISRDNSKNTLYLQMNSLRAEDTAVYYCARSVGPYFDYWGQGTLVTVSS[no letters for human IgG1 constant region with changes]GGGGSGGGGS[no letters for about 100 residues]YYGGYYSAWMDYWGQGTLVTVSSGGGGSGGGGSGGGGSDIQMTQSPSSLSASVGDRVTITCRASQSISSYLNWYQQKPGKAPKLLIYAASSLQSGVPSRFSGSGSGTDFTLTISSLQPEDFATYYCQQTYGYLHTFGQGTKLEIK
light: DIQMTQSPSSLSASVGDRVTITCRASQSISSYLNWYQQKPGKAPKLLIYAASSLQSGVPSRFSGSGSGTDFTLTISSLQPEDFATYYCQQGVGPYTFGQGTKLEIKRTVAAPSVFIFPPSDEQLKSGTASVVCLLNNFYPREAKVQWKVDNALQSGNSQESVTEQDSKDSTYSLSSTLTLSKADYEKHKVYACEVTHQGLSSPVTKSFNRGEC
B4: 1210-1202 (bispecific antibody)
heavy: [no letters for about 100 residues]YYGGYYSAWMDYWGQGTLVTVSS[no letters for human IgG1 constant region with changes]GGGGSGGGGSEVQLLESGGGLVQPGGSLRLSCAASGFTFYGSSMSWVRQAPGKGLEWVSSIYYGSSGTYYADSVKGRFTISRDNSKNTLYLQMNSLRAEDTAVYYCARSYYGYFDYWGQGTLVTVSSGGGGSGGGGSGGGGSDIQMTQSPSSLSASVGDRVTITCRASQSISSYLNWYQQKPGKAPKLLIYAASSLQSGVPSRFSGSGSGTDFTLTISSLQPEDFATYYCQQYYTVVPFTFGQGTKLEIK
light: DIQMTQSPSSLSASVGDRVTITCRASQSISSYLNWYQQKPGKAPKLLIYAASSLQSGVPSRFSGSGSGTDFTLTISSLQPEDFATYYCQQTYGYLHTFGQGTKLEIKRTVAAPSVFIFPPSDEQLKSGTASVVCLLNNFYPREAKVQWKVDNALQSGNSQESVTEQDSKDSTYSLSSTLTLSKADYEKHKVYACEVTHQGLSSPVTKSFNRGEC
B5: 1210-1204 (bispecific antibody)
heavy: [no letters for about 100 residues]YYGGYYSAWMDYWGQGTLVTVSS[no letters for human IgG1 constant region with changes]GGGGSGGGGSEVQLLESGGGLVQPGGSLRLSCAASGFTFSSYYMGWVRQAPGKGLEWVSGIGSYYGYTGYADSVKGRFTISRDNSKNTLYLQMNSLRAEDTAVYYCARAYYDYNYYYAYFDYWGQGTLVTVSSGGGGSGGGGSGGGGSDIQMTQSPSSLSASVGDRVTITCRASQSISSYLNWYQQKPGKAPKLLIYAASSLQSGVPSRFSGSGSGTDFTLTISSLQPEDFATYYCQQSVPHYPFTFGQGTKLEIK
light: DIQMTQSPSSLSASVGDRVTITCRASQSISSYLNWYQQKPGKAPKLLIYAASSLQSGVPSRFSGSGSGTDFTLTISSLQPEDFATYYCQQTYGYLHTFGQGTKLEIKRTVAAPSVFIFPPSDEQLKSGTASVVCLLNNFYPREAKVQWKVDNALQSGNSQESVTEQDSKDSTYSLSSTLTLSKADYEKHKVYACEVTHQGLSSPVTKSFNRGEC
B6: 1202-1210 (bispecific antibody)
heavy: EVQLLESGGGLVQPGGSLRLSCAASGFTFYGSSMSWVRQAPGKGLEWVSSIYYGSSGTYYADSVKGRFTISRDNSKNTLYLQMNSLRAEDTAVYYCARSYYGYFDYWGQGTLVTVSS[no letters for human IgG1 constant region with changes]GGGGSGGGGS[no letters for about 100 residues]YYGGYYSAWMDYWGQGTLVTVSSGGGGSGGGGSGGGGSDIQMTQSPSSLSASVGDRVTITCRASQSISSYLNWYQQKPGKAPKLLIYAASSLQSGVPSRFSGSGSGTDFTLTISSLQPEDFATYYCQQTYGYLHTFGQGTKLEIK
light: DIQMTQSPSSLSASVGDRVTITCRASQSISSYLNWYQQKPGKAPKLLIYAASSLQSGVPSRFSGSGSGTDFTLTISSLQPEDFATYYCQQYYTVVPFTFGQGTKLEIKRTVAAPSVFIFPPSDEQLKSGTASVVCLLNNFYPREAKVQWKVDNALQSGNSQESVTEQDSKDSTYSLSSTLTLSKADYEKHKVYACEVTHQGLSSPVTKSFNRGEC
B7: 1204-1210 (bispecific antibody)
heavy: EVQLLESGGGLVQPGGSLRLSCAASGFTFSSYYMGWVRQAPGKGLEWVSGIGSYYGYTGYADSVKGRFTISRDNSKNTLYLQMNSLRAEDTAVYYCARAYYDYNYYYAYFDYWGQGTLVTVSS[no letters for human IgG1 constant region with changes]GGGGSGGGGS[no letters for about 100 residues]YYGGYYSAWMDYWGQGTLVTVSSGGGGSGGGGSGGGGSDIQMTQSPSSLSASVGDRVTITCRASQSISSYLNWYQQKPGKAPKLLIYAASSLQSGVPSRFSGSGSGTDFTLTISSLQPEDFATYYCQQTYGYLHTFGQGTKLEIK
light: DIQMTQSPSSLSASVGDRVTITCRASQSISSYLNWYQQKPGKAPKLLIYAASSLQSGVPSRFSGSGSGTDFTLTISSLQPEDFATYYCQQSVPHYPFTFGQGTKLEIKRTVAAPSVFIFPPSDEQLKSGTASVVCLLNNFYPREAKVQWKVDNALQSGNSQESVTEQDSKDSTYSLSSTLTLSKADYEKHKVYACEVTHQGLSSPVTKSFNRGEC

This assay concerns the target T1, 5T4-Fc (obtained from Peter L. Stern, University of Manchester) (human, UniProt Q13641 32-355).
T1 construct: also called h5T4-Fc; recombinant 5T4; not shown: Fc part not specified
T1 sequence (looked up): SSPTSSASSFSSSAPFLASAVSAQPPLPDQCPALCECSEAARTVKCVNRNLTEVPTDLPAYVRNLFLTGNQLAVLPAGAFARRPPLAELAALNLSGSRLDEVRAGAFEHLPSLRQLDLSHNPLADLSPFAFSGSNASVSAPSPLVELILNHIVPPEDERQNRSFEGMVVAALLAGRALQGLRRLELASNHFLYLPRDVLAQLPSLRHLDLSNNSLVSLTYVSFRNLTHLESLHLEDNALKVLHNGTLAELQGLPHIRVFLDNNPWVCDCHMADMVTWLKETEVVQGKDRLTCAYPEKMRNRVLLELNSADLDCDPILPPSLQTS
Description: dual ELISA: coated 5T4-Fc, detection with CD137-bio. The protocol:
Plates (#655074, Greiner Bio-One GmbH, Germany) were pre-coated with 0.5 μg/ml 5T4-Fc (obtained from Professor Peter Stern, University of Manchester) overnight. CD137-5T4 bsAb were diluted from 8 to 2×10⁻³ μg/ml in 1:4 dilutions and added in duplicates of 50 μl to each well. CD137-bio (Ancell #502-030) was used as detection antibody at 0.5 μg/ml and the binding was detected with Streptavidin-HRP (Pierce #21126). The ELISA was developed with SuperSignal ELISA PICO Chemiluminescent substrate (Thermo Scientific Pierce, Rockford, Ill. USA) during 2-10 minutes and read in an automated microplate based multi-detection reader (FLUOstar OPTIMA, Netherlands).
On the technique in general: In an ELISA, binding on a coated surface is turned into a signal by an enzyme label.
For orientation: EC50 means the concentration giving half of the maximal effect. With B1, the half-maximal effective concentration (EC50) is 3730 pM. With B2, a half-maximal response (EC50) required 190 pM. In turn, B3 yielded an EC50 of 1740 pM.

In turn, B4 yielded an EC50 of 280 pM. B5 registered an EC50 of 280 pM. B6 had a half-maximal effective concentration (EC50) of 1200 pM. B7: a half-maximal response (EC50) required 730 pM.
